{"source": "PubChem BioAssay AID328", "about": "(DTP/NCI, 2004)", "tested_on": "BDF1 mice, P388 leukemia ip, median survival T/C", "test": "NCI In Vivo Anticancer Drug Screen. Data for tumor model P388 Leukemia (intraperitoneal) in B6D2F1 (BDF1) mice", "settings": "endpoint: median survival time, higher = longer survival", "experimental": "The antitumor activity of compounds was measured in mice bearing transplantable tumors. Survival or tumor size were measured and the results are expressed as the measurement made in the treated group (T) divided by the measurement made in the vehicle treated control group (C). The tumor model used in this assay is P388 Leukemia (intraperitoneal) in B6D2F1 (BDF1) mice", "note": "Inconclusive results and toxic doses are left out. The source holds more than one record for some entries. They are shown here; other results are not. There may be further records. Values given together are repeated measurements across runs, samples, wells, individuals or studies. Starred links: 1 amine or outer side, 2 acyl side, 3 side chain; linkers in the order of their positions; H or OH if unused. Positions of bridges follow the written chain, without caps; N, C: chain ends. Non-standard residues stand in square brackets, D forms with d. Residues, ends and D or L forms follow the SMILES beside them. Chains are numbered I, II in the order given. ξ: configuration not given here. Actinocin(9to1) = Cc1c2oc3c(C)ccc(C(=O)[*:1])c3nc-2c(C(=O)[*:2])c(N)c1=O; ξPro(4ξ-Me) = CC1CNC(C(=O)O)C1; NMeV = CN[CH](C(=O)O)C(C)C; Sar = CNCC(=O)O", "data": [{"smiles": "[N-]=[N+]=CC(=O)NCC(=O)NN", "values": [{"measurement": "T/C", "setting": "dose: 400.0 mg/kg/injection, schedule: Q01DX010 (ip), vehicle: water", "value": "90 % of control and 200 % of control"}]}, {"smiles": "O=NN(CCCl)C(=O)N[C@@H]1CCCC[C@H]1NC(=O)N(CCCl)N=O", "values": [{"measurement": "T/C", "setting": "dose: 50.0 mg/kg/injection, schedule: Q01DX009 (ip), vehicle: Klucel (hydroxypropylcellulose) (HPC)", "value": "108 % of control and 170 % of control"}]}, {"smiles": "C[N+]1(C)CCCCC1", "values": [{"measurement": "T/C", "setting": "dose: 50.0 mg/kg/injection, schedule: Q01DX009 (ip), vehicle: saline", "value": "96 % of control and 545 % of control"}]}, {"smiles": "Cc1c2oc3c(C)ccc(C(=O)NC4C(=O)NC(C(C)C)C(=O)N5CC(C)CC5C(=O)N(C)CC(=O)N(C)C(C(C)C)C(=O)OC4C)c3nc-2c(C(=O)NC2C(=O)NC(C(C)C)C(=O)N3CC(C)CC3C(=O)N(C)CC(=O)N(C)C(C(C)C)C(=O)OC2C)c(N)c1=O", "note": "(configuration not stated) (I: TV[ξPro(4ξ-Me)][Sar][NMeV] / II: TV[ξPro(4ξ-Me)][Sar][NMeV]; ester I:1-I:C, II:1-II:C; linker I:N-II:N via Actinocin(9to1); configuration not given here)", "values": [{"measurement": "T/C", "setting": "dose: 1440.0 micrograms/kg/injection, schedule: Q04DX003 (ip), vehicle: saline + alcohol", "value": "100 % of control and 160 % of control"}]}, {"smiles": "ClCCN(CCCl)CCCN1c2ccccc2Sc2ccccc21", "values": [{"measurement": "T/C", "setting": "dose: 6.25 mg/kg/injection, schedule: Q04DX003 (ip), vehicle: saline with Tween-80", "value": "118 % of control and 161 % of control"}]}, {"smiles": "CC1=[N+](C)C(C)(C)CC(C)O1", "note": "(configuration not stated)", "values": [{"measurement": "T/C", "setting": "dose: 25.0 mg/kg/injection, schedule: Q01DX009 (ip), vehicle: saline", "value": "88 % of control and 200 % of control"}]}, {"smiles": "CC(CN1CC(=O)NC(=O)C1)N1CC(=O)NC(=O)C1", "note": "(configuration not stated)", "values": [{"measurement": "T/C", "setting": "dose: 15.0 mg/kg/injection, schedule: Q01DX010 (ip), vehicle: saline", "value": "100 % of control and 190 % of control"}]}, {"smiles": "O=C1OC(=O)c2c(Br)c(Br)c(Br)c(Br)c21", "values": [{"measurement": "T/C", "setting": "dose: 37.5 mg/kg/injection, schedule: Q01DX009 (ip), vehicle: saline with Tween-80", "value": "90 % of control and 150 % of control"}]}, {"smiles": "CC1CN1C(=O)c1cc(C(=O)N2CC2C)cc(C(=O)N2CC2C)c1", "note": "(configuration not stated)", "values": [{"measurement": "T/C", "setting": "dose: 25.0 mg/kg/injection, schedule: Q01DX009 (ip), vehicle: saline with Tween-80", "value": "122 % of control and 150 % of control"}]}, {"smiles": "[O-][n+]1c(CN2CCCCC2)nc2cccc3c2c1-c1ccccc1-3", "values": [{"measurement": "T/C", "setting": "dose: 100.0 mg/kg/injection, schedule: Q01DX009 (ip), vehicle: saline with Tween-80", "value": "121 % of control, 123 % of control, 158 % of control"}, {"measurement": "T/C", "setting": "dose: 200.0 mg/kg/injection, schedule: Q01DX009 (ip), vehicle: Klucel (hydroxypropylcellulose) (HPC)", "value": "91 % of control and 159 % of control"}]}, {"smiles": "NNC(=O)[C@H]1CC[C@H]1C(=O)NN", "values": [{"measurement": "T/C", "setting": "dose: 100.0 mg/kg/injection, schedule: Q01DX009 (ip), vehicle: saline", "value": "118 % of control and 150 % of control"}]}, {"smiles": "NC(=O)C(Br)CBr", "note": "(configuration not stated)", "values": [{"measurement": "T/C", "setting": "dose: 6.0 mg/kg/injection, schedule: Q01DX009 (ip), vehicle: saline with Tween-80", "value": "103 % of control and 151 % of control"}]}, {"smiles": "COc1cccc2c1C(=O)c1c(O)c3c(c(O)c1C2=O)C[C@@](O)(C(C)=O)C[C@@H]3OC1CC(N)C(O)C(C)O1", "note": "(some centres not stated)", "values": [{"measurement": "T/C", "setting": "dose: 0.25 mg/kg/injection, schedule: Q## X020 (ip), vehicle: saline", "value": "100 % of control and 179 % of control"}, {"measurement": "T/C", "setting": "dose: 1.25 mg/kg/injection, schedule: Q01DX001 (ip), vehicle: saline", "value": "100 % of control and 170 % of control"}, {"measurement": "T/C", "setting": "dose: 2.5 mg/kg/injection, schedule: Q01DX010 (ip), vehicle: saline", "value": "118 % of control and 185 % of control"}, {"measurement": "T/C", "setting": "dose: 5.0 mg/kg/injection, schedule: Q01DX001 (ip), vehicle: saline", "value": "118 % of control and 180 % of control"}, {"measurement": "T/C", "setting": "dose: 10.0 mg/kg/injection, schedule: Q01DX001 (ip), vehicle: saline", "value": "118 % of control and 175 % of control"}]}, {"smiles": "CCOC(=O)C1C(=O)C(CN(CCCl)CCCl)C(=O)C(C(=O)OCC)C1c1ccc(O)cc1", "note": "(configuration not stated)", "values": [{"measurement": "T/C", "setting": "dose: 50.0 mg/kg/injection, schedule: Q04DX003 (ip), vehicle: saline with Tween-80", "value": "86 % of control and 269 % of control"}]}, {"smiles": "COc1cc2c(c(OC)c1OC)-c1cc(I)c(O)cc1[C@@H](NC(C)=O)CC2", "values": [{"measurement": "T/C", "setting": "dose: 44.0 mg/kg/injection, schedule: Q04DX003 (ip), vehicle: saline with Tween-80", "value": "110 % of control and 200 % of control"}]}, {"smiles": "CC(=O)N(O)c1ccc(Cl)cc1", "values": [{"measurement": "T/C", "setting": "dose: 100.0 mg/kg/injection, schedule: Q04DX002 (ip), vehicle: saline with Tween-80", "value": "86 % of control, 114 % of control, 154 % of control"}]}, {"smiles": "CN(N=O)C(=O)NC(N)=O", "values": [{"measurement": "T/C", "setting": "dose: 3.6 mg/kg/injection, schedule: Q01DX009 (ip), vehicle: saline", "value": "119 % of control and 161 % of control"}]}, {"smiles": "C[n+]1c(-c2ccccc2)c2cc(N)ccc2c2ccccc21", "values": [{"measurement": "T/C", "setting": "dose: 15.0 mg/kg/injection, schedule: Q01DX009 (ip), vehicle: saline", "value": "100 % of control and 161 % of control"}]}, {"smiles": "ClC(Cl)(Cl)c1ccc(C(Cl)(Cl)Cl)cc1", "values": [{"measurement": "T/C", "setting": "dose: 50.0 mg/kg/injection, schedule: Q04DX003 (ip), vehicle: Klucel (hydroxypropylcellulose) (HPC)", "value": "92 % of control and 150 % of control"}]}, {"smiles": "COc1cc(C)c(C2NC(=O)c3ccccc3N2)cc1C", "note": "(configuration not stated)", "values": [{"measurement": "T/C", "setting": "dose: 100.0 mg/kg/injection, schedule: Q01DX009 (ip), vehicle: Klucel (hydroxypropylcellulose) (HPC)", "value": "104 % of control and 150 % of control"}]}, {"smiles": "COc1cc2c(cc1OC)C(OC)N(C)c1c-2ccc2cc3c(cc12)OCO3", "note": "(configuration not stated)", "values": [{"measurement": "T/C", "setting": "dose: 200.0 mg/kg/injection, schedule: Q04DX002 (ip), vehicle: Klucel (hydroxypropylcellulose) (HPC)", "value": "101 % of control and 181 % of control"}]}, {"smiles": "CC1=CC2=C(C=O)C(=O)[C@](C)(O)[C@@H](O)C2=CO1", "values": [{"measurement": "T/C", "setting": "dose: 100.0 mg/kg/injection, schedule: Q04DX003 (ip), vehicle: saline with Tween-80", "value": "104 % of control and 150 % of control"}]}]}
